Experimental data: the supplement of paper PMC3334620
In all, about 33,000 sequences were measured (“E-score (-0.5 to 0.5)”: median about -0.011, highest 2% from about 0.28 on). The list shows a part of the results.

biological target: T1, Gcr1 (UniProt P07261); test: PBM E-score (8-mer binding enrichment) (E-score (-0.5 to 0.5)); higher = stronger / more preferred TF binding; most listed sequences are background and not binding sites; settings: protein concentration: 100 nM; construct: GST-full length
T1 sequence: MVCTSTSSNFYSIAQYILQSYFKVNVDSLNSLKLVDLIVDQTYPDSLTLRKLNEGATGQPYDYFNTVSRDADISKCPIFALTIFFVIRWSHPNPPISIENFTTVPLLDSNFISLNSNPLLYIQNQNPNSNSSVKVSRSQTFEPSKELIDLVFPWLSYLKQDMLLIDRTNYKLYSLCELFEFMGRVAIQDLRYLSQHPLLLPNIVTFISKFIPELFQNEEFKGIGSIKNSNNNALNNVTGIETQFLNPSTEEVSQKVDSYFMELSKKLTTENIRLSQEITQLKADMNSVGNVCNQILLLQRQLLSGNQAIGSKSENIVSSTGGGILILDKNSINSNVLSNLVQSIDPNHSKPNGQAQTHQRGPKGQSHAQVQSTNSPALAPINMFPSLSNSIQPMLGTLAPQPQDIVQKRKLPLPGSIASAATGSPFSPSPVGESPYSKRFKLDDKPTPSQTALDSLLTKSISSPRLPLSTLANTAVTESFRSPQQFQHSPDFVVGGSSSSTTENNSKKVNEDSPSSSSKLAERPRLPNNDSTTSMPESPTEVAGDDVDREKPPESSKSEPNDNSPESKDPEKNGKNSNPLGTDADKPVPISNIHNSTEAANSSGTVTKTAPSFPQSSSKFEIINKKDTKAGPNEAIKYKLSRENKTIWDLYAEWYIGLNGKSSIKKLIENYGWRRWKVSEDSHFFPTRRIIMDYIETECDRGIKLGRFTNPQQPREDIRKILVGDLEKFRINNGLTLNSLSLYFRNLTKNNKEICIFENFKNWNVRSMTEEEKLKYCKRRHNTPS
Procedure, shortened: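 E-scores (a modified Wilcoxon-Mann-Whitney statistic) were assigned by the Universal PBM Analysis Suite to every ungapped eight-base word pooled with its reverse complement. The input came from universal all-10-mer Agilent arrays made double-stranded by primer extension and probed with GST-tagged yeast transcription factors at about 100-200 nM. Fluorescent anti-GST detected bound protein, and masliner normalised the scans.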

Row | Sequence | PBM E-score
1 | CAGGAGCA | 0.0632
2 | CGACCTGA | -0.0722
3 | GATCCCAA | 0.278
4 | GCATGGGA | 0.0449
5 | AAATTCTC | 0.0423
6 | AAATACCT | 0.0115
7 | CCTATTGC | -0.0151
8 | AATCAGCG | 0.0596
9 | AACGCCGT | -0.216
10 | ACACTGGA | 0.264
11 | GCTGTATA | -0.244
12 | CATACTGA | 0.00856
13 | ACCCTCGG | -0.333
14 | GCCAGAGA | 0.089
15 | CATGAGGG | -0.325
16 | GTAGAGGA | 0.207
17 | CATTTGTC | -0.165
18 | ACTAACTG | 0.0208
19 | GACATACA | 0.00827
20 | AACGTCTA | 0.00101
21 | CCATAACG | 0.036
22 | GGAAAATA | 0.0546
23 | GAGCCTGA | -0.0612
24 | AAGGAGGA | 0.0608
25 | ATAACTTC | 0.151

Row | Sequence | PBM E-score
26 | GCCACTGA | 0.237
27 | CCCTTGAG | -0.0784
28 | GAAGGTTA | -0.132
29 | CGGAACCC | 0.348
30 | GAGCTTGA | -0.27
31 | ATTTCACG | 0.0699
32 | AGACTAAG | -0.151
33 | ATTGAATC | -0.229
34 | AGAGAAGG | -0.0646
35 | AAGGTTTC | -0.149
36 | GCCTGGAC | -0.0291
37 | AGTTGAGG | 0.0732
38 | ACTTATCC | 0.05
39 | ACCTGCTA | -0.211
40 | CGACTTCC | 0.27
41 | GCGCTTAA | 0.0941
42 | TCGTGGCA | 0.0674
43 | CGGCAGCA | -0.0108
44 | ATGGCGGG | -0.175
45 | CGCTAGAA | 0.0935
46 | AGGTCGCG | -0.0268
47 | CGAGAGGC | -0.0864
48 | ACCTACCA | -0.116
49 | GCGTCTAA | 0.357
50 | AAATACTC | -0.0536

Row | Sequence | PBM E-score
51 | CGCAGCTC | 0.09
52 | ACTATGAA | 0.0421
53 | ATGGGCGA | -3e-05
54 | AGACAAGG | -0.191
55 | GGAGTCAC | -0.0369
56 | GCCTTTCA | -0.134
57 | GTCCGCAA | -0.0214
58 | ATGGCAGG | 0.23
59 | AATCGGTC | -0.0441
60 | CGAGGGAG | -0.207
61 | CACAGTAG | 0.119
62 | CCATCTTA | 0.133
63 | GTACAGAC | -0.155
64 | ACTAGTTG | 0.209
65 | ATGCTGCG | 0.0273
66 | CTCAAACC | -0.123
67 | AATGGCGG | -0.00339
68 | CCGATACA | 0.0692
69 | CCCTCTGC | -0.333
70 | CACAATGA | 0.0838
71 | CAAAATTG | 0.0415
72 | CCCTCTAG | 0.0202
73 | ATGTAGAG | -0.0132
74 | ATCCATCG | -0.173
75 | GATAACGA | -0.223

Row | Sequence | PBM E-score
76 | GACTCGCA | -0.101
77 | AGTCTGCA | -0.179
78 | ATCATATG | -0.201
79 | AAGTCTGG | 0.0604
80 | CAGCAGCA | 0.00017
81 | GCTCTTCA | -0.0466
82 | CGGATGAA | -0.124
83 | CTTTAAAC | 0.00913
84 | CATACTCA | -0.0376
85 | TAGGGGCA | 0.0843
86 | GACTGCGC | -0.0774
87 | AGTCGGGA | -0.166
88 | AACCCGGC | 0.0862
89 | CCATAGCA | 0.111
90 | ATAAAACA | 0.147
91 | CGCCACAC | 0.0307
92 | ACCTCGTA | -0.147
93 | ACCCGTTA | 0.113
94 | AAATAAGA | 0.244
95 | ATATAAGA | 0.149
96 | CTGTTACA | -0.0232
97 | CCTCGCTA | -0.0436
98 | GCAGGACA | 0.0472
99 | AAGACCTC | -0.196
100 | TCAGCCGA | -0.237

Row | Sequence | PBM E-score
101 | ACCCATAG | -0.0241
102 | AAGCGCTG | -0.0178
103 | CTCAAGGA | -0.0618
104 | AGCTAACG | -0.0538
105 | GCTTAAGA | -0.0325
106 | AAGATTCG | 0.0694
107 | AAAGCAAG | -0.171
108 | AGTGATAA | 0.0157
109 | CTGTCGAA | -0.198
110 | CAAGGAAC | 0.0885
111 | AGGCCAAA | 0.141
112 | CCGCTCGC | 0.0456
113 | CAATGCTA | 0.0932
114 | CGTTTGCA | -0.108
115 | ACTTAGAT | -0.0341
116 | GGACATAC | -0.239
117 | CCTTTTAC | 0.208
118 | AACAAATG | -0.0834
119 | CGGAGCTC | -0.0976
120 | CTTCCAAA | 0.338
121 | CCCATGAA | 0.053
122 | TCAGGCAA | -0.162
123 | ATGCAGAC | 0.0912
124 | AGATAACA | -0.0519
125 | GTGCTCTA | -0.0794

Row | Sequence | PBM E-score
126 | CATAGAAC | -0.0439
127 | AACGTTTG | -0.0537
128 | CAGCTAGA | 0.227
129 | GAAGATCC | -0.0567
130 | ACTGCCGC | -8e-05
131 | AGTAAAAC | -0.21
132 | CGTGCATC | 0.00547
133 | ATCGTAAG | -0.0963
134 | CCCGCGAA | 0.171
135 | AGGACAGG | 0.0703
136 | AAAGGTTG | 0.0957
137 | CCTGACGC | -0.0471
138 | CAAAAATG | 0.131
139 | AGAACTTC | -0.00062
140 | AGTATTAT | 0.0512
141 | AACTATGG | -0.048
142 | GCTAGGCC | -0.144
143 | AACTAGGA | 0.0121
144 | CCCACCCA | 0.117
145 | TAATGTCA | -0.0397
146 | GAAGATAC | 0.0322
147 | CTATTTGA | 0.129
148 | GGAGTCAA | 0.0417
149 | AGATTGTC | -0.145
150 | GTTAACGA | -0.0966

Row | Sequence | PBM E-score
151 | ACTGGACG | 0.303
152 | CAGCTGGA | 0.0258
153 | GGCGAATA | 0.139
154 | GCACTAAA | 0.0118
155 | ACCAGAGA | -0.102
156 | CTTCTTGA | 0.257
157 | CTTTACAA | -0.0314
158 | AGATCCCA | 0.265
159 | AGACGCTC | 0.185
160 | CTATCACC | -0.0751
161 | CTTGTCTA | -0.0729
162 | AACGAACG | -0.0657
163 | AAGGCTCC | 0.0884
164 | CCGACCCC | -0.121
165 | TATGTCGA | 0.0853
166 | CTCGTTAC | -0.102
167 | AAATACGT | 0.128
168 | CTCTGCGA | -0.0534
169 | AGACCTAG | 0.0215
170 | AGTCGGGG | 0.0245
171 | CAATCCTA | 0.03
172 | CGTCCGAG | -0.124
173 | AACTAGTG | 0.156
174 | CACTGCTA | -0.145
175 | ACGCGGGG | 0.0597

Row | Sequence | PBM E-score
176 | ACAGTAAC | 0.0416
177 | CCCCTAGC | 0.0605
178 | GGCACGCA | -0.00715
179 | AGGACATG | -0.0461
180 | TCGAGCAA | -0.0234
181 | TCGGAGAA | 0.0287
182 | ACTGGGGC | 0.0922
183 | CGACGAGC | -0.246
184 | CCTTAAGC | -0.0255
185 | CGTTAGTA | 0.0931
186 | GATAACCA | 0.0866
187 | AACAATCG | -0.182
188 | CGGTCTAC | -0.204
189 | GGCTGACC | -0.139
190 | ATAGGCGA | 0.0948
191 | TAAATAAA | 0.08
192 | CAGCGTTA | -0.155
193 | GCAGGCGA | -0.0907
194 | GACAGGTC | -0.204
195 | CGGACTTA | -0.122
196 | ATAGTGCG | -0.138
197 | AACACGGA | -0.104
198 | CATCTACC | 0.0356
199 | AGGTATGC | -0.0126
200 | AAGGGCGC | 0.224

Row | Sequence | PBM E-score
201 | CCGGCCAC | -0.136
202 | ACTAAGTA | 0.0323
203 | AACTCTGT | -0.178
204 | CGCCTACC | -0.0167
205 | GACTACCC | -0.146
206 | AATAGGCG | 0.168
207 | AAAATCCA | -0.012
208 | AACGGAGG | -0.167
209 | AGACGTGC | 0.195
210 | GCGTAAGA | -0.0655
211 | AGCCTGTA | 0.0606
212 | CGACCGGC | -0.113
213 | CGGCAAAG | -0.0192
214 | GGGTACAA | 0.0739
215 | ACGTTTCA | -0.119
216 | AGCATTGC | -0.114
217 | GCGAACTA | 0.109
218 | ACCATCAC | -0.2
219 | GCGTTCCC | 0.101
